B1: LINE1-mini (parent)
chain: GGCAGAGCUCAACACAGCGUGGCAAAGUGGCUGUGGCUAGACUGCC

The source gives no read counts; variants with many changes may rest on few reads.

The variants in this data set derive from B1. In words: self-cleavage, relative activity (ratio to wild type); higher = more cleavage; in vitro, sequencing; the parent is a self-cleaving ribozyme.
As for UGCAGAGCUCAACACAGCGUGCCAAAUUGGCUGUGCCUAGACUGCC [G1U G22C G27U G36C], the self-cleavage is 0.

For UGCAGAGCUCAACACAGCGUGGCAAAGGGGCUGUGACUAGACUGCC [G1U U28G G36A], the self-cleavage is 0.05.

Turning to UGCAGAGCUCAACACAGCGGGGCAAAGUGGCUGUGGCUAUACUGCC [G1U U20G G40U], the self-cleavage amounted to 0.01.

For UGCAGAGCUCAACACAGCCAGGCAAAGUGGCUGCGGCUAAACUACC [G1U G19C U20A U34C G40A G44A], the self-cleavage stood at 0.01.

UGCAGAGCUCAACACAGCGUGGCAAAGUGGCACUAGCUAGACUGCC [G1U U32A G33C G35A]: the self-cleavage was found to be 0.04.

On to UGCAGAGCUCAACACAGCGUGGCAAAGUAGCUUUGGCAAGACUGCC [G1U G29A G33U U38A], for which the self-cleavage was 0.03.

For the variant UGCAGAGCGCAACACAGGGUUGCGAAGUGGCUGUGGCUAGACAGCC [G1U U9G C18G G21U A24G U43A], the self-cleavage was determined as 0.

As for UGCAGAGCCCAACACAGCGUGGCAAAGUUGCUGUGGCUAUACUGCC [G1U U9C G29U G40U], the self-cleavage is 0.01.

UGCAGAGCUCAACACAGCGUGGCAAAGUGACUGUGGCUCGACUGCC [G1U G30A A39C]: the self-cleavage came to 0.03.

UGCAGAGCUCAACACAUCGUGGCAAAGUGGCUGUGGCUAGACUGCA [G1U G17U C46A]: the self-cleavage is 0.2.

Turning to UGCAGAGCUCAACACAGCGCGGCAAAGUGGUUGUGGCUAGACUGCC [G1U U20C C31U], the self-cleavage is 0.03.

On to UGCAGAGCUCAACACAGCGUUGCAAAGUCGCUGUGGCUAGACUGCC [G1U G21U G29C], for which the self-cleavage was 0.07.

Consider UGCAGAGCGCGAGACAGAGUGGCAAAGUGGCUGUCGCUAGCCUGCC [G1U U9G A11G C13G C18A G35C A41C], for which the self-cleavage stood at 0.

Turning to UGCAGAGCUCAACACAGCGAGGCAAAGUGGCAGUGGCUGGACUACC [G1U U20A U32A A39G G44A], the self-cleavage worked out at 0.

Turning to UGCAGAGCUCAACACAGCGCGGCAAAGUUGCUGUGGCUUGACUGCC [G1U U20C G29U A39U], the self-cleavage came out at 0.12.

In the case of UGCAGAGCUCAACACAGCGAGGCAUAGUGGCUGUGGCUCGACUGCU [G1U U20A A25U A39C C46U], the self-cleavage turned out to be 0.02.

As to UGCAGAGCACAACACAGCGUGGCAAAGGGGCUGUGACUAGACUGCC [G1U U9A U28G G36A], the self-cleavage stood at 0.02.

As for UGCAGAGCGCAACACAGCGUGGCAAAUUGGCUGUGGUUAGACUGCC [G1U U9G G27U C37U], the self-cleavage was 0.03.

Regarding UGCAGAGCUCAACACAGCAUGCCAAAGUGGCUGUGGCGAGACUGCC [G1U G19A G22C U38G], the self-cleavage came out at 0.

In the case of UGCAGAGCCCAACGCAGCGUGGCAAAGUGGCUGUGGCUAGACUGCC [G1U U9C A14G], the self-cleavage worked out at 0.03.

In the case of UGCAGAGCUCAACACAGCGUGGCAAAGUGGCUGUGGCUAGACUUCA [G1U G44U C46A], the self-cleavage was 0.06.

As to UGCAGAGCUCAACACAGCGUGGCAAAGUGCCUAUGGCUAGACUGCC [G1U G30C G33A], the self-cleavage was found to be 0.

Turning to UGCAGAGCCCAACACAGCGUGACAAAGUUGCUGUGGCUAGACUUCC [G1U U9C G22A G29U G44U], the self-cleavage was 0.01.

UGCAGAGCUCAACACAUAGUGGGAAAGUGGCUGUGGCUAGACUGCC [G1U G17U C18A C23G]: the self-cleavage stood at 0.06.

For UGCAGAGCACAAUACAGCGUGGAAAAGUGGCUGUGGCUAGACUGCC [G1U U9A C13U C23A], the self-cleavage was found to be 0.11.

Take UGCAGAGCACAAUACAGCGUGGUAAAGUGGCUGUGGCUAGACUGCC [G1U U9A C13U C23U]: the self-cleavage amounted to 0.02.

Regarding UGCAGAGCUCAACACAGCGUAACAAAGUGGCUGUGGCUAGACUGGC [G1U G21A G22A C45G], the self-cleavage was found to be 0.34.

In the case of UGCAGAGCUCAACACAGCGUGUCAAACUGGCUGUGGCUAGACUGCC [G1U G22U G27C], the self-cleavage was determined as 0.1.

As for UGCAGAGCUCAACACAGCGUGGCAAAGUCGCUGUGGCUAGACUGAC [G1U G29C C45A], the self-cleavage was 0.13.

Consider UGCAGAGCUCAACACAGCGUGUCAAAGUGGCUGUGGCUAGACUGAC [G1U G22U C45A], for which the self-cleavage turned out to be 0.44.

For UGCAGAGCUCAACACACAGUGGCAAAGUGGCACUGGCGAGACUGCC [G1U G17C C18A U32A G33C U38G], the self-cleavage stood at 0.

In the case of UGCAGAGCUCAACACAACGUGGAAAAGUGGCUGUGGCUAGACUGCC [G1U G17A C23A], the self-cleavage came to 0.23.

On to UGCAGAGCUCAACACAUCGUGGUAAAGUGUCUGUGGCUAGACUGCC [G1U G17U C23U G30U], for which the self-cleavage worked out at 0.05.

Turning to UGCAGAGCGCUACACAGCGUGGCAAAGUGGCUGUGGCUAGACUGCC [G1U U9G A11U], the self-cleavage is 0.01.

Turning to UGCAGAGCUCAACACAGCGUGGCAAAGUGACUGUGGCUAUACUGCC [G1U G30A G40U], the self-cleavage came out at 0.02.

For UGCAGAGCUCAACACAGCGUGGCAAAGUUGCGGUGGCUAGACUGCC [G1U G29U U32G], the self-cleavage turned out to be 0.08.

For the variant UGCAGAGCUCAACACAGCCAGGCAAAGUGGCAGUGGCUGGACUGCC [G1U G19C U20A U32A A39G], the self-cleavage is 0.03.

For UGCAGAGCUCAACACAACGUGGCAAAGUGGCUGUGGCUAGUCUGUC [G1U G17A A41U C45U], the self-cleavage was 0.11.

With UGCAGAGCCCAACACAGCGUGGCAAAGUGGCUGUGGGUAGACUGCC [G1U U9C C37G], the self-cleavage came out at 0.04.

Regarding UGCAGAGCCCAACACAGCGUGGCAAAGUGGCUGUGGUUAGACUGCC [G1U U9C C37U], the self-cleavage was found to be 0.02.

As to UGCAGAGCUCAACACAGCUUGGCAAAGGGGCUGUGGAGAGACUGCC [G1U G19U U28G C37A U38G], the self-cleavage amounted to 0.01.

As to UGCAGAGCUCAACACAGCUUGGCAAUGUGGCAGUGGCUAGACGACC [G1U G19U A26U U32A U43G G44A], the self-cleavage is 0.05.

Turning to UGCAGAGCUCAACACAGCGUGGCAAAGUGGCUUUGGCUAGGCUGCC [G1U G33U A41G], the self-cleavage was determined as 0.01.

Take UGCAGAGCGCAACACAGCGUGGCAAAGUGGGUGUGGCUAGACUUCC [G1U U9G C31G G44U]: the self-cleavage amounted to 0.03.

For the variant UGCAGAGCUCAACACAGCGUUGAAAAGUGGCCGUGGCUAGACUGCC [G1U G21U C23A U32C], the self-cleavage is 0.78.

Take UGCAGAGCGCAACACAGCGUGGCAAAGUGGCUGUGGCUAGAUUGCC [G1U U9G C42U]: the self-cleavage came out at 0.04.

UGCAGAGCUCAACACAGCGUGGCAAAGUGCCUGUGUCUACACUGCC [G1U G30C G36U G40C]: the self-cleavage was 0.13.

For the variant UGCAGAGCUCAACACAGCGUGGCAAAGUGGCUGUGACUAGCCUGCC [G1U G36A A41C], the self-cleavage was determined as 0.03.

Take UGCAGAGCUCAACACAGCGCGGCAAAUUGGCUGUGGCUAGACUGCC [G1U U20C G27U]: the self-cleavage was found to be 0.08.

Take UGCAGAGCACGACACAGCGUGGCAAAGUGGCUGUGGCUCUACUGUC [G1U U9A A11G A39C G40U C45U]: the self-cleavage stood at 0.

As for UGCAGAGCUCAACACAGCGAGGCAACGUGGCUGUGGCUAGACUGCC [G1U U20A A26C], the self-cleavage was found to be 0.14.

For the variant UGCAGAGCUCAACACAGCGUGGCAAAGAGGGUGUGGCUAUACUGCC [G1U U28A C31G G40U], the self-cleavage is 0.05.

Consider UGCAGAGCUCAACACAGCGUGGCAAAGGGGCUGUGGCUAGUCUGCC [G1U U28G A41U], for which the self-cleavage is 0.21.

Consider UGCAGAGCGCAACACAGCGUGGCAUAGUGGCUGUGGCAAGACUGCC [G1U U9G A25U U38A], for which the self-cleavage came out at 0.01.

On to UGCAGAGCGCAACACAGCUUGGCAAAGCGGCUGUGGCUAGACUGCC [G1U U9G G19U U28C], for which the self-cleavage was found to be 0.01.

Consider UGCAGAGCUCAACACAUCGUGGCAAAGUAGCUGCGGCUAGACUGCC [G1U G17U G29A U34C], for which the self-cleavage was 0.1.

For the origin of these results see the RNAGym collection of RNA variant scans (doi:10.7554/elife.90254).
